Measurements taken from the supplement of paper PMC4967469.
Lines with a small IC50 respond at low doses; where the fit passes the top or lowest dose, that dose stands as a limit. AUC, from the same fit, is the share of area under the viability curve across the 256-fold dose range; it is 1 without any effect and falls as sensitivity rises. For some of these results: An inferred top dose comes from the curve model; the source does not state it. For some of these results: Where an entry number is given, a second screen of the drug exists; the two often differ.

Tests used:
Assay in all cases: Viability of human cancer cell lines after 72 h of drug (GDSC screen)
AMG-706 = compound: CC1(C)CNc2cc(NC(=O)c3cccnc3NCc3ccncc3)ccc21 [AMG-706]; details: top dose 2 µM; top dose inferred
Method: (§1)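 Human cancer cell lines in 384-well plates, medium with 10% serum, drug for 72 h over a 256-fold dose range (nine 2-fold or five 4-fold steps up to the top dose). Adherent lines were fixed and stained with the nucleic acid dye Syto60, suspension lines read with resazurin; signal relative to control wells, capped at 0 and 100%. One two-parameter sigmoid per drug and line, fitted in a mixed model over all curves with the slope shared within a line.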

JNJ-26854165 = compound: c1ccc2c(CCNc3ccc(Nc4ccncc4)cc3)c[nH]c2c1 [JNJ-26854165]; details: top dose 10 µM
Method: as §1

FTI-277 = compound: COC(=O)[C@H](CCSC)NC(=O)c1ccc(NC[C@@H](N)CS)cc1-c1ccccc1 [FTI-277]; details: top dose 1.024 µM; top dose inferred
Method: as §1

Docetaxel = compound: CC(=O)O[C@@]12CO[C@@H]1C[C@H](O)[C@@]1(C)C(=O)[C@H](O)C3=C(C)[C@@H](OC(=O)[C@H](O)[C@@H](NC(=O)OC(C)(C)C)c4ccccc4)C[C@@](O)([C@@H](OC(=O)c4ccccc4)[C@H]21)C3(C)C [Docetaxel]; details: top dose 0.0125 µM
Method: as §1

OSI-906 = compound: C[C@]1(O)C[C@@H](c2nc(-c3ccc4ccc(-c5ccccc5)nc4c3)c3c(N)nccn32)C1 [OSI-906]; details: top dose 2.56 µM; top dose inferred
Method: as §1

Belinostat = compound: O=C(/C=C/c1cccc(S(=O)(=O)Nc2ccccc2)c1)NO [Belinostat]; details: top dose 20 µM; top dose inferred
Method: as §1

SB-715992 = compound: Cc1ccc(C(=O)N(CCCN)[C@@H](c2nc3cc(Cl)ccc3c(=O)n2Cc2ccccc2)C(C)C)cc1 [SB-715992]; details: top dose 0.128 µM; top dose inferred
Method: as §1

JNK Inhibitor VIII = compound: CCOc1nc(NC(=O)Cc2cc(OC)ccc2OC)cc(N)c1C#N [JNK Inhibitor VIII]; details: top dose 10 µM; top dose inferred
Method: as §1

NSC-207895 = compound: CN1CCN(c2ccc([N+](=O)[O-])c3no[n+]([O-])c23)CC1 [NSC-207895]; details: top dose 20 µM; top dose inferred
Method: as §1

JQ1 = compound: Cc1sc2c(c1C)C(c1ccc(Cl)cc1)=N[C@@H](CC(=O)OC(C)(C)C)c1nnc(C)n1-2 [JQ1]
Method: as §1

YM155 = compound: COCC[n+]1c2c(n(Cc3cnccn3)c1C)C(=O)c1ccccc1C2=O [YM155]; details: top dose 5.12 µM
Method: as §1

[1] = top dose 1 µM, screen: GDSC drug entry 1218, top dose inferred
[2] = top dose 2.56 µM, screen: GDSC drug entry 163

| Cell Line | AUC (AMG-706) | IC50 (AMG-706) | AUC (JNJ-26854165) | IC50 (JNJ-26854165) | AUC (FTI-277) | IC50 (FTI-277) | AUC (Docetaxel) | IC50 (Docetaxel) | AUC (OSI-906) | IC50 (OSI-906) | AUC (Belinostat) | IC50 (Belinostat) | AUC (SB-715992) | IC50 (SB-715992) | AUC (JNK Inhibitor VIII) | IC50 (JNK Inhibitor VIII) | AUC (NSC-207895) | IC50 (NSC-207895) | AUC (JQ1; [1]) | IC50 (JQ1; [1]) | AUC (JQ1; [2]) | IC50 (JQ1; [2]) | AUC (YM155) | IC50 (YM155) |
| --- | --- | --- | --- | --- | --- | --- | --- | --- | --- | --- | --- | --- | --- | --- | --- | --- | --- | --- | --- | --- | --- | --- | --- | --- |
| OE33 (oesophagus, adherent) | 0.984 | > 2000 nM | 0.833 | 8240 nM | 0.95 | > 1020 nM | 0.819 | 8.89 nM | 0.97 | > 2560 nM | 0.611 | 2670 nM | 0.973 | > 128 nM | 0.981 | > 10000 nM | 0.895 | > 20000 nM | 0.982 | > 1000 nM | 0.729 | 825 nM |  |  |
| OVKATE (ovary, adherent) | 0.979 | > 2000 nM | 0.947 | > 10000 nM | 0.979 | > 1020 nM | 0.965 | > 12.5 nM |  |  | 0.451 | 838 nM | 0.979 | > 128 nM | 0.978 | > 10000 nM | 0.831 | > 20000 nM | 0.977 | > 1000 nM | 0.96 | > 2560 nM | 0.193 | < 20 nM |
| RERF-LC-Sq1 (lung squamous cell carcinoma, adherent) | 0.935 | > 2000 nM | 0.87 | > 10000 nM |  |  | 0.841 | > 12.5 nM | 0.979 | > 2560 nM | 0.572 | 2160 nM | 0.932 | > 128 nM | 0.954 | > 10000 nM | 0.969 | > 20000 nM | 0.975 | > 1000 nM | 0.947 | > 2560 nM | 0.057 | < 20 nM |
| SCC90 (head and neck, adherent) | 0.974 | > 2000 nM | 0.938 | > 10000 nM | 0.981 | > 1020 nM | 0.823 | 12 nM | 0.892 | > 2560 nM |  |  | 0.838 | > 128 nM | 0.98 | > 10000 nM |  |  | 0.978 | > 1000 nM | 0.768 | 1380 nM |  |  |
| SJRH30 (rhabdomyosarcoma, adherent) | 0.973 | > 2000 nM | 0.858 | 8700 nM |  |  | 0.655 | 2.13 nM | 0.688 | 549 nM | 0.456 | 943 nM | 0.891 | > 128 nM | 0.959 | > 10000 nM | 0.876 | > 20000 nM | 0.985 | > 1000 nM | 0.716 | 670 nM | 0.035 | < 20 nM |
| SK-MG-1 (glioma, adherent) | 0.964 | > 2000 nM | 0.855 | 8130 nM |  |  | 0.653 | 2.09 nM |  |  | 0.459 | 965 nM | 0.919 | > 128 nM | 0.978 | > 10000 nM | 0.697 | 4490 nM | 0.966 | > 1000 nM |  |  | 0.027 | < 20 nM |
| SNG-M (endometrium, adherent) | 0.986 | > 2000 nM | 0.899 | > 10000 nM | 0.969 | > 1020 nM | 0.619 | 1.65 nM | 0.972 | > 2560 nM |  |  | 0.516 | 8.82 nM | 0.977 | > 10000 nM |  |  | 0.97 | > 1000 nM | 0.758 | 869 nM |  |  |
| SNU-61 (large intestine, adherent) | 0.976 | > 2000 nM | 0.97 | > 10000 nM |  |  | 0.968 | > 12.5 nM |  |  | 0.29 | 261 nM | 0.95 | > 128 nM | 0.98 | > 10000 nM | 0.767 | 9850 nM | 0.958 | > 1000 nM |  |  | 0.056 | < 20 nM |
| SNU-81 (large intestine, adherent) | 0.982 | > 2000 nM | 0.928 | > 10000 nM |  |  | 0.873 | > 12.5 nM |  |  | 0.977 | > 20000 nM | 0.827 | 118 nM | 0.982 | > 10000 nM | 0.912 | > 20000 nM | 0.98 | > 1000 nM |  |  | 0.744 | 2080 nM |
| SNU-407 (large intestine, adherent) | 0.978 | > 2000 nM | 0.954 | > 10000 nM |  |  | 0.806 | 7.71 nM |  |  | 0.452 | 904 nM | 0.812 | 83 nM | 0.96 | > 10000 nM | 0.971 | > 20000 nM | 0.978 | > 1000 nM |  |  | 0.539 | 416 nM |
| SNU-C5 (large intestine, adherent) | 0.98 | > 2000 nM | 0.964 | > 10000 nM |  |  | 0.7 | 3.04 nM |  |  | 0.494 | 1200 nM | 0.967 | > 128 nM | 0.986 | > 10000 nM | 0.873 | > 20000 nM | 0.984 | > 1000 nM |  |  | 0.051 | < 20 nM |
| STS-0421 (soft tissue, adherent) | 0.983 | > 2000 nM | 0.821 | 7100 nM | 0.975 | > 1020 nM | 0.726 | 3.86 nM | 0.909 | > 2560 nM |  |  | 0.623 | 18.5 nM | 0.908 | > 10000 nM |  |  | 0.977 | > 1000 nM | 0.769 | 1130 nM |  |  |
| TE-4 (oesophagus, adherent) | 0.971 | > 2000 nM | 0.887 | > 10000 nM |  |  | 0.586 | 1.34 nM |  |  | 0.413 | 723 nM | 0.965 | > 128 nM | 0.983 | > 10000 nM | 0.987 | > 20000 nM | 0.982 | > 1000 nM |  |  | 0.28 | 76.2 nM |
| UWB1.289 (ovary, adherent) | 0.967 | > 2000 nM | 0.918 | > 10000 nM |  |  | 0.866 | > 12.5 nM |  |  | 0.493 | 1190 nM | 0.916 | > 128 nM | 0.963 | > 10000 nM | 0.917 | > 20000 nM | 0.973 | > 1000 nM |  |  | 0.209 | 27.5 nM |
